# Test results as given in PubChem BioAssay AID662 (National Center for Advancing Translational Sciences (NCATS), 2007).
# Among all 71,000 compounds or so, about 1,800 (2.5%) were called active. The inconclusive results got no clear call from the source; some entries with a clear call stand among them for comparison. Calls come from the whole dose curve; as a rule, active = well fitted activation curve with a large enough effect in the signal ratio, with a control signal flat (not every such curve was filed as active); inconclusive = small, poorly fitted or top-dose-only effect, or effect the other way, or a change in a side signal; inactive = flat fitted curve, though single readings scatter; the % refers to the signal ratio. A potency beside an inconclusive call is a rough fit, not a confirmed value.
# Assay: Cell signaling CRE-BLA (Fsk stim); for activity change, negative = inhibition: % of control where 0% means no effect
# Details: CHO CRE-bla reporter (cAMP response element driving beta-lactamase), forskolin EC10, beta-lactamase ratio; activity change, negative = inhibition: at 38.2 µM (top of the series) unless noted
# How it was run: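 CRE-bla CHO cells stimulated with EC10 NKH 477 (water-soluble forskolin) and compound titrations, 3 h at 37C; beta-lactamase read with CCF4 after 2 h at room temperature. Activity from 460/530 nm emission ratio, AC50 values for positive or negative modulation.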
# Potency is the fitted concentration of half-maximal effect; tags give direction and shape of the fitted curve.
SMILES,"activity change, negative = inhibition",Potency
N=c1ccn(Cc2ccc(Cl)c(Cl)c2)cc1,inconclusive: 5.53%,–
CCOC(=O)c1sc2ccc(S(=O)(=O)N3CCOCC3)cc2c1N,inconclusive: 24.8%,–
CCOc1ccc(-n2c(=O)c3c4c(sc3n(CC(=O)NCc3ccco3)c2=O)CCC4)cc1,inconclusive: 10.2%,–
C=C(C)CC1N(c2cccc(OC)c2)C(=O)C2C(C(=O)O)C3C=CC21O3 (stereo not drawn),inactive: -3.27%,–
CCCN1CCN(C(=O)c2cn(CC(C)C)c(=O)c3cc(OC)c(OC)cc23)CC1,–,"inconclusive: 12.6 µM [rising, partial curve]"
Cc1nc2nc(C)c(CCC(=O)N3CCc4ccccc43)c(C)n2n1,–,"inconclusive: 1 µM [rising, full curve]"
Cc1ccc(S(=O)(=O)c2n[nH]n3c2nc(=O)c2ccccc23)cc1,inconclusive: 26.6%,–
COc1ccc2oc(-c3ccc(O)cc3)cc(=O)c2c1,–,active: 15.8 µM
CC(=O)Nc1nc(CC(=O)c2ccccc2)cs1,inactive: -7.35%,–
COc1ccc(OC)c(Nc2nc(-c3sc(C)nc3C)cs2)c1,–,"inconclusive: 5.01 µM [rising, single point]"
CCOC(=O)Cn1c(=O)oc2cc(S(=O)(=O)Nc3cc(OCC)ccc3OCC)ccc21,inconclusive: 8.91%,–
COc1cc(/C=C\C(=O)N2CCCCC2=O)cc(OC)c1OC,inconclusive: 7.59%,–
CCCCCCCCCCCCCCC1CO1 (stereo not drawn),inactive: -3.22%,–
Cc1cc(Oc2ccccc2)nc(-c2ccccc2)n1,–,"inconclusive: 5.01 µM [rising, single point]"
CCOC(=O)c1c(C)n(C)c2ccc(OC(C)C(=O)OC)cc12 (stereo not drawn),–,"inconclusive: 12.6 µM [rising, single point]"
COc1cccc2c1C(=O)c1c(O)c3c(c(O)c1C2=O)C[C@](O)(C(C)=O)C[C@H]3O[C@@H]1C[C@H](N)[C@H](O)[C@H](C)O1,inconclusive: 2.13% [at 17.1 µM],–
O=C1c2ccccc2C(=O)N1CCN1CCOCC1,inactive: -5.66%,–
CCCOc1ccccc1C1C(C(=O)OC)=CN(C(C)C)C=C1C(=O)OC,–,"inconclusive: 25.1 µM [rising, single point]"
NCCc1nnc(SCc2c(F)cccc2Cl)o1,inconclusive: -17%,–
CN(Cc1ccccc1)c1nc2c(c(=O)[nH]c(=O)n2C)n1Cc1ccccc1,–,"inconclusive: 6.31 µM [rising, partial curve]"
COc1ccccc1NC(=O)N(Cc1cc2cc(OC)c(OC)cc2[nH]c1=O)CC1CCCO1 (stereo not drawn),–,"inconclusive: 12.6 µM [rising, single point]"
COC(=O)c1ccc(C(=O)OC)c(NC(=O)CCc2ccc(C)o2)c1,inactive: 6.62%,–
CCCCCCN(C(=O)CCCCCN1C(=O)NC(c2ccc(-c3ccccc3)cc2)C(C(=O)OCc2ccccc2)=C1C)C(C(=O)NCCCC)c1ccc(OCC(=O)OC)c(C(=O)OC)c1 (stereo not drawn),inconclusive: -0.238%,–
CCOC(=O)C(CC)n1cnc2c(oc3ccccc32)c1=O (stereo not drawn),inactive: -4.91%,–
COC(=O)c1[nH]c2ccc(C)cc2c1NC(=O)CN1CCCCC1C (stereo not drawn),inactive: 7.72%,–
N/C(CN1CCCC1=O)=N\O,inactive: -8.57%,–

SMILES,"activity change, negative = inhibition",Potency
COc1cccc(/C(O)=C2/C(=O)C(=O)N(CCN(C)C)C2c2ccccn2)c1 (stereo not drawn),inactive: 9.59%,–
CCC(C(=O)Nc1nccs1)c1ccccc1 (stereo not drawn),–,"inconclusive: 0.0126 µM [rising, full curve, poor fit]"
CCOc1cccc(-n2nnnc2-c2ccc(OC)cc2)c1,–,active: 12.6 µM
COc1ccc(OC)c(-n2c(C)nc3cc(C(=O)O)ccc32)c1,–,"inconclusive: 12.6 µM [rising, single point]"
Cc1ccc(C)c(N2CCN(S(=O)(=O)c3ccc4[nH]c(=O)c(=O)[nH]c4c3)CC2)c1,inconclusive: -8.86%,–
Cc1ccc(C(=O)Nc2sc3c(c2C(=O)O)CCCCC3)o1,inactive: 3.45%,–
CC1=C(C(=O)OC(C)C)C(c2ccccn2)n2ncnc2N1 (stereo not drawn),inactive: 0.194%,–
CCCC(=O)Nc1ccc2c(c1)C(=O)N(CCC(=O)O)C2=O,inactive: -3.45%,–
CCCc1[nH]nc2c1C(c1ccc(OC)cc1OC)C(C#N)=C(N)O2 (stereo not drawn),inconclusive: -6.13%,–
CN(Cc1ccco1)c1ncnc2ccc(-c3cccnc3)cc12,–,"inconclusive: 2 µM [rising, partial curve]"
COCCn1c(SCC(=O)N2CCCc3ccccc32)nc2ccccc2c1=O,–,"inconclusive: 3.16 µM [rising, single point]"
CCCCn1c(SCC(=O)NC(=O)NCc2ccco2)nc2cc(S(N)(=O)=O)ccc21,–,"inconclusive: 3.16 µM [falling, single point]"
N[C@@H](CC1=CS(=O)(=O)c2ccc(Cl)cc21)C(=O)O,inactive: -2.54% [at 7.6 µM],–
C/C(=C\C(=O)c1ccc(F)cc1)Nc1ccc(N2CCOCC2)cc1,inactive: -5.2%,–
Cc1oc(-c2ccccc2F)nc1CN1CCC(C(=O)NCc2cccs2)CC1,–,"inconclusive: 3.16 µM [falling, partial curve, poor fit]"
COCCN(CCOC)c1nc(C)nc2c1nc(-c1ccccc1)n2CCCN(C)C,inactive: -3.94%,–
COc1cc(Cl)c(S(=O)(=O)N2CCN(Cc3ccc4c(c3)OCO4)CC2)cc1Cl,inconclusive: 19.5%,–
COC(=O)CNc1c(-c2ccccn2)nc2ccc(Br)cn12,inactive: 16.4%,–
COc1cc2[nH]c(=O)n(CCC(=O)N3CCc4ccccc4C3)c(=O)c2cc1OC,inactive: -0.583%,–
O=c1oc2c(CN3CCOCC3)c(O)c(Cl)cc2c2c1CCC2,–,"inconclusive: 7.94 µM [rising, partial curve]"
Cc1cc(C(=O)Nc2ccc(C(=O)O)cc2)c(-c2ccccc2)o1,inconclusive: 22%,–
O=C(c1[nH]o[n+](=O)c1C(=O)c1csc2ccccc12)c1csc2ccccc12,inactive: -17.7% [at 7.6 µM],–
COc1ccc(C(=O)OCCNC(=O)c2c(Cl)nc3ccccn23)cc1,–,active: 0.398 µM
COc1ccccc1Oc1coc2c(CN3CCN(C)CC3)c(O)ccc2c1=O,inactive: 0.569%,–
CCNc1ncc2nc(-c3cn(C)c4ccccc34)c(=O)n(-c3ccccc3)c2n1,–,"inconclusive: 0.398 µM [rising, full curve]"
Cc1[nH]c2ccccc2c1C(=O)CN1CCN(C2CCCCC2)CC1,inconclusive: 6.53%,–

SMILES,"activity change, negative = inhibition",Potency
COc1ccc(-c2cn3c(C)c(C(=O)Nc4cccc(NC(C)=O)c4)sc3n2)cc1,inactive: 3.59%,–
CC(C)Cn1c(N)c(C(=O)NCc2cccs2)c2nc3ccccc3nc21,–,"inconclusive: 10 µM [rising, partial curve]"
Cc1occc1C(=O)NCc1ccc2c(c1)OCO2,inconclusive: -12% [at 7.6 µM],–
Cc1cc(C)cc(OCc2nnc(SCC(=O)c3ccc(Br)cc3)o2)c1,inconclusive: 34.4%,–
COc1ccc(C(=O)Nc2ccccc2NC(=O)c2ccco2)cc1OC,–,"inconclusive: 10 µM [rising, partial curve]"
COc1ccccc1OCC(=O)Nc1ccc(S(=O)(=O)Nc2nc(C)cc(C)n2)cc1,–,"inconclusive: 2.51 µM [rising, single point]"
COc1ccc(CSc2nc(N3CCOCC3)c3c(c2C#N)CC(C)(C)OC3)cc1,–,"inconclusive: 3.98 µM [rising, partial curve]"
COc1cc2[nH]c(=O)n(CCC(=O)N3CCN(c4cccc(C)c4C)CC3)c(=O)c2cc1OC,inactive: -2.45%,–
Fc1ccc(C2=Nn3c(nnc3-c3n[nH]c4c3CCC4)SC2)cc1,–,"inconclusive: 3.98 µM [rising, partial curve]"
O=C(CSc1ncnc2c1oc1ccccc12)Nc1cccc(F)c1,–,"inconclusive: 2.51 µM [rising, full curve]"
Cc1nnc(NC2=NCCC2)s1,–,"inconclusive: 3.16 µM [falling, single point]"
COc1cccc(OCc2nc3ccccc3c(=O)n2N)c1,inconclusive: 23.5%,–
OCCNCCCCOc1ccccc1F,inconclusive: 27.4% [at 7.6 µM],–
Cc1nc2c([nH]c3ccc(Br)cc32)s1,–,"inconclusive: 20 µM [rising, single point]"
C[C@@H](C(=O)Nc1ccc2ccccc2c1)[C@H]1C[C@]1(C)[C@H](NC(=O)c1cccnc1)c1ccccc1,inconclusive: -8.23%,–
CN(C)C=Nc1c(Br)cc(Br)c2nonc12,–,"inconclusive: 15.8 µM [falling, partial curve]"
CS(=O)(=O)Nc1cccc(C(=O)CC2(O)C(=O)Nc3ccc(Br)cc32)c1 (stereo not drawn),inconclusive: 13.1%,–
COc1ccc(OC)c(-n2nnnc2SCC(=O)NCc2ccc3c(c2)OCO3)c1,inconclusive: -10.9%,–
Cc1ccc(C(=O)CSc2nnc(CNc3ccc(C)cc3C)n2Cc2ccco2)cc1,inconclusive: -21.4%,–
O=C(Nc1cccc(-c2nc3ccccc3[nH]2)c1)c1ccco1,–,"inconclusive: 3.98 µM [rising, partial curve]"
CCOC(=O)C1CCN(S(=O)(=O)c2ccc3c4c(cccc24)C(=O)N3)CC1,–,"inconclusive: 25.1 µM [rising, single point]"
CC(=O)NC12CC3CC(C1)CC(C(=O)OCC(=O)NC(=O)c1cccn1C)(C3)C2,–,"inconclusive: 3.98 µM [falling, single point]"
CCOC(=O)c1cc(CC)sc1NC(=O)COC,inconclusive: -10.9%,–
Cc1cccc(CNc2ccnc(-c3ccc(N(C)C)cc3)n2)c1,–,"inconclusive: 20 µM [rising, single point]"
CN(C)c1ncc2nc(-c3cccc(C#N)c3)c(=O)n(CCC#N)c2n1,inconclusive: 21.9%,–
Nc1cc(S(N)(=O)=O)ccc1SSc1ccc(S(N)(=O)=O)cc1N,inactive: 23.7% [at 7.6 µM],–
